Laboratory results taken from US20250205362A1, “LIPID NANOPARTICLES” (NATIONAL UNIVERSITY CORPORATION HOKKAIDO UNIVERSITY, priority 2022, published 2025).
At least one compound was matched to its structure with a doubt left.

Experiments:
TTR gene = assay: Measurement of TTR-KO activity (serum TTR protein, ELISA); assay type: in vivo, mouse; conditions: FIG. 5; TTR-RNP-ssODN-loaded LNP; mouse serum 7 days after administration
Procedure: Lipid nanoparticles encapsulating Cas9/sgTTR-RNP (Cas9/sgTTR-RNP-loaded lipid nanoparticles) were intravenously injected to BALB/c mice (female, 4 weeks old) at the indicated doses. One week after intravenous injection, the mice were euthanized, blood was collected, and serum was isolated by centrifugation. The TTR protein concentration in the serum was determined using a commercially available ELISA kit (Prealbumin ELISA Kit (mouse), Aviva Systems Biology) according to the manufacturer's protocol. The serum TTR protein concentration of untreated mice was taken as 100%, and the relative value (%) of the serum TTR protein concentration of mice administered with each lipid nanoparticle was taken as the knockout activity (TTR-KO activity) of the lipid nanoparticle.

BALB/c mice = assay: Measurement of Fluc activity in tissues after iv Fluc mRNA-loaded lipid nanoparticles; assay type: in vivo, mouse; conditions: Balb/c mice
Procedure: First, lipid nanoparticles encapsulating Fluc mRNA (Fluc mRNA-loaded lipid nanoparticles) were intravenously injected into BALB/c mice (female, 4 weeks old) at a dose of 0.01 mg mRNA/kg body weight. Six hours after intravenous injection, the mice were euthanized, and each tissue was collected, frozen in liquid nitrogen, and stored at −80° C. The tissues were homogenized in passive lysis buffer (Promega) using a bead cell disrupter (Micro Smash MS-100R, TOMY Seiko). Tissue debris was removed by centrifugation and the supernatant was collected. Fluc activity in the supernatant was measured using a luciferase assay system (E1500, Promega) according to the manufacturer's protocol. Luminescence was measured using a luminometer (Luminescencer-PSN, ATTO). The protein concentration was determined using a commercially available measurement kit (BCA Protein Assay Kit, Pierce). Fluc activity was expressed as relative light units (RLU) per mg of protein.

[1] = Average particle diameter, PdI and zeta potential of lipid nanoparticles (dynamic light scattering); assay type: physicochemical
Procedure: The mean particle diameter (number average value), ζ-mean particle diameter, and polydispersity index (PdI) of the lipid nanoparticles in PBS(−) (pH 7.4), as well as the zeta potential in 10 mM HEPES buffer (pH 7.4), were measured using an analyzing device, Zetasizer Nano ZS ZEN3600 (Malvern), which utilizes dynamic light scattering.

[2] = Encapsulation rate of lipid nanoparticles (Ribogreen); assay type: physicochemical
Procedure: The encapsulation rate of the lipid nanoparticles was calculated by measuring the amount of encapsulated nucleic acid (the amount of ssODN in the case of RNP-ssODN) using an RNA intercalator Ribogreen (manufactured by Life Technologies).

[3] = Fluc mRNA-loaded LNP CL4F12-e-6/DSPC/cholesterol/PEG-DMG 50/10/40/1.5, frozen sample (−80° C., thawed)
[4] = Fluc mRNA-loaded LNP CL4F12-e-6/DSPC/cholesterol/PEG-DMG 50/10/40/1.5, non-frozen sample
[5] = Fluc mRNA-loaded LNP, cationic lipid/DSPC/cholesterol/PEG-DMG 50/10/40/1.5 mol%, Table 6
[6] = Fluc mRNA-loaded LNP, lipid/DSPC/cholesterol/PEG-DMG 50/10/40/1.5 (MC3: 50/10/38.5/1.5) mol%, Table 15
[7] = TTR-RNP-ssODN-loaded LNP (ssODN-TTR_3-40%), cationic lipid/DSPC/cholesterol/PEG-DMG 50/10/40/3.5 mol%, Table 8

With `CCCCCCC(CCCCCC)CCCCC(=O)OCCCCCCC(O)(CCCCCCOC(=O)CCCCC(CCCCCC)CCCCCC)CCCCN(CCC)CCC` [CL4F12-e-6, 7-(4-(dipropylamino)butyl)-7-hydroxytridecane-1,13-diylbis(6-hexyldodecanoate)] the “serum TTR activity / gene knockout versus CL4F6” value (TTR gene) was “lower serum TTR activity and higher gene knockout”, the “Fluc activity versus MC3” value (BALB/c mice; FIG. 10, liver, spleen, lung, and kidney, n=2) was “higher Fluc activity than the lipid nanoparticles containing MC3” and the “gene expression activity, frozen versus non-frozen sample” value (BALB/c mice; FIG. 11, freeze-thaw stability, n=3) was “hardly affected by the freeze-thaw treatment”. For the same compound, the Number-average particle diameter [1, 3] was 74.8 nm, the PdI [1, 3] was 0.124 and the ζ-average [1, 3] was 108.8 nm. For the same compound, the ζ-potential [1, 3] was 4.17 mV, the Number-average particle diameter [1, 4] was 73.8 nm and the PdI [1, 4] was 0.115. For the same compound, the ζ-average [1, 4] was 104.9 nm, the ζ-potential [1, 4] was 0.84 mV and the Number-average particle diameter [1, 5] was 46.0 nm. It also gave a PdI [1, 5] of 0.261, a ζ-average [1, 5] of 92.1 nm and a ζ-potential [1, 5] of −6.38 mV. It also gave a Number-average particle diameter [1, 6] of 74.9 nm, a PdI [1, 6] of 0.141 and a ζ-average [1, 6] of 128.2 nm. For the same compound, the ζ-potential [1, 6] was 2.99 mV, the Number-average particle diameter [1, 7] was 106.2 nm and the PdI [1, 7] was 0.121. It also gave a ζ-average [1, 7] of 145.6 nm, a ζ-potential [1, 7] of 0.34 mV and an Encapsulation rate [2, 3] of 90.1%. The Encapsulation rate [2, 4] was 89.6%, the Encapsulation rate [2, 5] was 90.5% and the Encapsulation rate [2, 6] was 91.0%. The Encapsulation rate [2, 7] was 81.4%.
